Test results as given in the supplement of paper PMC4967469.

Tests used:
Experiment in all cases: Viability of human cancer cell lines after 72 h of drug (GDSC screen)
FTI-277 = compound: COC(=O)[C@H](CCSC)NC(=O)c1ccc(NC[C@@H](N)CS)cc1-c1ccccc1 [FTI-277]; conditions: top dose 1.024 µM; top dose inferred
Procedure: (§1)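 Human cancer cell lines in 384-well plates, medium with 10% serum, drug for 72 h over a 256-fold dose range (nine 2-fold or five 4-fold steps up to the top dose). Adherent lines were fixed and stained with the nucleic acid dye Syto60, suspension lines read with resazurin; signal relative to control wells, capped at 0 and 100%. One two-parameter sigmoid per drug and line, fitted in a mixed model over all curves with the slope shared within a line.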

AMG-706 = compound: CC1(C)CNc2cc(NC(=O)c3cccnc3NCc3ccncc3)ccc21 [AMG-706]; conditions: top dose 2 µM; top dose inferred
Procedure: as §1

Docetaxel = compound: CC(=O)O[C@@]12CO[C@@H]1C[C@H](O)[C@@]1(C)C(=O)[C@H](O)C3=C(C)[C@@H](OC(=O)[C@H](O)[C@@H](NC(=O)OC(C)(C)C)c4ccccc4)C[C@@](O)([C@@H](OC(=O)c4ccccc4)[C@H]21)C3(C)C [Docetaxel]; conditions: top dose 0.0125 µM
Procedure: as §1

YM155 = compound: COCC[n+]1c2c(n(Cc3cnccn3)c1C)C(=O)c1ccccc1C2=O [YM155]; conditions: top dose 5.12 µM
Procedure: as §1

SB-715992 = compound: Cc1ccc(C(=O)N(CCCN)[C@@H](c2nc3cc(Cl)ccc3c(=O)n2Cc2ccccc2)C(C)C)cc1 [SB-715992]; conditions: top dose 0.128 µM; top dose inferred
Procedure: as §1

JQ1 = compound: Cc1sc2c(c1C)C(c1ccc(Cl)cc1)=N[C@@H](CC(=O)OC(C)(C)C)c1nnc(C)n1-2 [JQ1]
Procedure: as §1

Belinostat = compound: O=C(/C=C/c1cccc(S(=O)(=O)Nc2ccccc2)c1)NO [Belinostat]; conditions: top dose 20 µM; top dose inferred
Procedure: as §1

JNK Inhibitor VIII = compound: CCOc1nc(NC(=O)Cc2cc(OC)ccc2OC)cc(N)c1C#N [JNK Inhibitor VIII]; conditions: top dose 10 µM; top dose inferred
Procedure: as §1

NSC-207895 = compound: CN1CCN(c2ccc([N+](=O)[O-])c3no[n+]([O-])c23)CC1 [NSC-207895]; conditions: top dose 20 µM; top dose inferred
Procedure: as §1

OSI-906 = compound: C[C@]1(O)C[C@@H](c2nc(-c3ccc4ccc(-c5ccccc5)nc4c3)c3c(N)nccn32)C1 [OSI-906]; conditions: top dose 2.56 µM; top dose inferred
Procedure: as §1

JNJ-26854165 = compound: c1ccc2c(CCNc3ccc(Nc4ccncc4)cc3)c[nH]c2c1 [JNJ-26854165]; conditions: top dose 10 µM
Procedure: as §1

[1] = top dose 1 µM, screen: GDSC drug entry 1218, top dose inferred
[2] = top dose 2.56 µM, screen: GDSC drug entry 163

Cell Line | AUC (FTI-277) | IC50 (FTI-277) | AUC (AMG-706) | IC50 (AMG-706) | AUC (Docetaxel) | IC50 (Docetaxel) | AUC (YM155) | IC50 (YM155) | AUC (SB-715992) | IC50 (SB-715992) | AUC (JQ1; [1]) | IC50 (JQ1; [1]) | AUC (JQ1; [2]) | IC50 (JQ1; [2]) | AUC (Belinostat) | IC50 (Belinostat) | AUC (JNK Inhibitor VIII) | IC50 (JNK Inhibitor VIII) | AUC (NSC-207895) | IC50 (NSC-207895) | AUC (OSI-906) | IC50 (OSI-906) | AUC (JNJ-26854165) | IC50 (JNJ-26854165)
MDA-MB-330 (breast, adherent) | 0.973 | > 1.02 µM | 0.934 | > 2 µM | 0.93 | > 0.0125 µM | 0.275 | 0.0663 µM | 0.967 | > 0.128 µM | 0.984 | > 1 µM | 0.561 | 0.241 µM | 0.444 | 0.86 µM | 0.978 | > 10 µM | 0.974 | > 20 µM | 0.918 | > 2.56 µM |  | 
G-292 Clone A141B1 (osteosarcoma, adherent) | 0.867 | > 1.02 µM | 0.938 | > 2 µM | 0.83 | > 0.0125 µM | 0.3 | 0.0615 µM | 0.967 | > 0.128 µM | 0.969 | > 1 µM | 0.633 | 0.465 µM | 0.855 | > 20 µM | 0.952 | > 10 µM | 0.953 | > 20 µM | 0.813 | > 2.56 µM |  | 
SW626 (ovary, adherent) | 0.951 | > 1.02 µM | 0.954 | > 2 µM | 0.803 | 0.00763 µM | 0.157 | 0.0219 µM | 0.697 | 0.0319 µM | 0.981 | > 1 µM | 0.652 | 0.459 µM |  |  | 0.983 | > 10 µM | 0.934 | > 20 µM | 0.945 | > 2.56 µM | 0.922 | > 10 µM
FU-OV-1 (ovary, adherent) | 0.972 | > 1.02 µM | 0.979 | > 2 µM | 0.881 | > 0.0125 µM |  |  | 0.898 | > 0.128 µM | 0.769 | 0.501 µM | 0.488 | 0.147 µM | 0.786 | 11.7 µM | 0.963 | > 10 µM | 0.907 | > 20 µM | 0.556 | 0.238 µM | 0.887 | > 10 µM
BICR22 (head and neck, adherent) | 0.918 | > 1.02 µM | 0.943 | > 2 µM | 0.376 | 0.000336 µM |  |  | 0.983 | > 0.128 µM | 0.946 | > 1 µM | 0.96 | > 2.56 µM | 0.64 | 3.23 µM | 0.924 | > 10 µM | 0.983 | > 20 µM | 0.952 | > 2.56 µM | 0.746 | 3.58 µM
YKG-1 (glioma, adherent) | 0.987 | > 1.02 µM | 0.986 | > 2 µM | 0.525 | 0.000917 µM |  |  | 0.618 | 0.017 µM | 0.985 | > 1 µM | 0.672 | 0.486 µM | 0.754 | 6.81 µM | 0.965 | > 10 µM | 0.907 | > 20 µM | 0.987 | > 2.56 µM | 0.85 | 7.77 µM
T-T (oesophagus, adherent) | 0.968 | > 1.02 µM | 0.98 | > 2 µM | 0.524 | 0.000908 µM |  |  | 0.944 | > 0.128 µM | 0.985 | > 1 µM | 0.527 | 0.189 µM | 0.834 | 13 µM | 0.963 | > 10 µM | 0.876 | 19.8 µM | 0.865 | 2.24 µM | 0.879 | > 10 µM
RPMI-7951 (melanoma, adherent) | 0.964 | > 1.02 µM | 0.968 | > 2 µM | 0.466 | 0.000632 µM | 0.023 | < 0.02 µM | 0.712 | 0.0311 µM |  |  | 0.905 | > 2.56 µM |  |  | 0.963 | > 10 µM | 0.758 | 6.73 µM | 0.987 | > 2.56 µM | 0.86 | 7.99 µM
LN-229 (glioma, adherent) | 0.98 | > 1.02 µM | 0.972 | > 2 µM | 0.682 | 0.00251 µM | 0.206 | 0.0437 µM | 0.971 | > 0.128 µM | 0.986 | > 1 µM | 0.812 | 1.37 µM |  |  | 0.979 | > 10 µM | 0.983 | > 20 µM | 0.975 | > 2.56 µM | 0.873 | 9.56 µM
SK-MEL-3 (melanoma, adherent) | 0.976 | > 1.02 µM | 0.979 | > 2 µM | 0.9 | > 0.0125 µM | 0.128 | < 0.02 µM | 0.974 | > 0.128 µM | 0.983 | > 1 µM | 0.775 | 1.18 µM |  |  | 0.984 | > 10 µM | 0.93 | > 20 µM | 0.751 | 0.959 µM | 0.9 | > 10 µM
NCI-H838 (lung adenocarcinoma, adherent) | 0.978 | > 1.02 µM | 0.974 | > 2 µM | 0.699 | 0.00291 µM | 0.045 | < 0.02 µM | 0.985 | > 0.128 µM |  |  |  |  | 0.475 | 1.07 µM | 0.967 | > 10 µM | 0.966 | > 20 µM | 0.846 | 1.97 µM |  | 
C-4-I (cervix, adherent) | 0.972 | > 1.02 µM | 0.982 | > 2 µM | 0.686 | 0.00272 µM |  |  | 0.869 | > 0.128 µM | 0.748 | 0.346 µM | 0.74 | 0.829 µM | 0.692 | 4.54 µM | 0.985 | > 10 µM | 0.977 | > 20 µM | 0.982 | > 2.56 µM | 0.839 | 7.69 µM

By IC50 is meant the dose at which the fit gives 50% viability; fits outside the tested doses are given as limits. AUC, from the same fit, is the share of area under the viability curve across the 256-fold dose range: 1 means no effect, lower means more sensitive. For part of these data: Where the top dose is marked as inferred, it was derived from the fitted curves, not read from the paper. For part of these data: Where an entry number is given, a second screen of the drug exists; the two often differ.
